The record followed here is patent US12551573B2, “Compositions and methods for the targeting of PCSK9” (Scribe Therapeutics Inc., priority 2022, dated 2026).

B1: DOMAIN_16651 (protein)
chain: QAQETLTFEDVAVDFTWEEWQLLAPPQKDLYRDVMLENYSNLLSVGFQASKPNVLSKLGQGEPWTMEDEIHCQTRSEIWKV
modifications: Delphinapterus leucas
B2: DOMAIN_16238 (protein, listed as Pongo sp.)
chain: FQEPVTFEDVAVYFTQNEWASLHPTQRALYRGVMLENYANVTSLSAFPFPKPDLIFQLEQGEAAWGPDPWTLDGGEALRGM
B3: DOMAIN_16630 (protein)
chain: FQEPVTFEDVAVYFTQNEWTSLQPSQRALFREVMLENYATVTSLSAFPFPKPDLIFRLEQGEAAWGPDPWTLAGEEALRGL
modifications: Cebus imitator
B4: DOMAIN_16576 (protein)
chain: SQESVSFKDVTVGFTQEEWQHLDPSQRALYRDVMLENYSNLVSVGYCVHKPEVIFRLQQGEEPWKLEEEFPSQSFPEVWTA
modifications: Pan troglodytes
B5: DOMAIN_16063 (protein, listed as Macaca mulatta)
chain: ACESITFGDVAIDFSHQEWEYLNLVQKTLYQEVMMENYDNLVSLGHSISKPDLITLLEQGKEPWMIVGEETRGECTDLDSR
B6: DOMAIN_16618 (protein, listed as Ursus maritimus)
chain: HQDLVTFKDVAVYFTQTEWAGLSPAQKALYRSVMLENYGNLTSLGYPVPKPALISLLEGGNLPWGLEAQDNPSAERTKDIC
B7: DOMAIN_16478 (protein, listed as Rhinopithecus roxellana)
chain: MVSFEDVAVPLSQEEWNCLIPAQRGLYRDVMLETYGNLVSLGLQASKPDVISRLEQGDEPWTPHILRTQGSWSWRHKREGY
B8: DOMAIN_16629 (protein)
chain: SLGSELFRDVAIVFSQEEWQWLAPAQRDLYRDVMLETYSNLVSLGLAISKPDVISFLEQGREPWMVERVVAGGLCPVLESR
modifications: Cebus imitator
B9: DOMAIN_16664 (protein, listed as Leptonychotes weddellii)
chain: SQEPVTFEDVAVYFTQNQWASLDPMQRALYLEVMLENYANITSLAALPFPKPDLILQLEQGEAPWDLDPWTPLEGEALEGV
B10: DOMAIN_16188 (protein, listed as Otolemur garnettii)
chain: LQESVTFRDVAVLFSQDEWLHLDSAQRTLYREVMLENYNNLASLGIPFSMPKVICQLQQGEDPCTVEGEVPSDSCIDAKGQ
B11: DOMAIN_16274 (protein, listed as Otolemur garnettii)
chain: FQGLMTFEDVTVEFTQWEWGQLDPAQKDLYREVMLENFRNLASLGLPLSKPYVICQLEEGQEPCMLEKEISVGTQSVGEAT
B12: DOMAIN_16147 (protein, listed as Pongo sp.)
chain: ARGKSKSKAPVTFGDLAIYFSQEEWEWLSPIQKDLYEDVMLENYRNLVSLGLSFRRPNVITLLEKGKAPWMVEPVRRRRAP
B13: DOMAIN_16372 (protein, listed as Odocoileus virginianus)
chain: SRSPLTFGDVAVEFSGEEWARLDSAQRSLHRSVMLENYRNLASLGLCMSKPEMISSLEQRKEPWAVKRKSTRGRCPDSQTA
B14: DOMAIN_16673 (protein, listed as Phascolarctos cinereus)
chain: SLESVTFQDVAVNFTQEEWGHLEPAQKDLYREVMLENYQNFVSLGLPFSKPHVISQLERGEAPWITERDVPRVSCQDFFIQ
B15: DOMAIN_16638 (protein, listed as Macaca nemestrina)
chain: YQTPVSFKDVVVGFTQEEWHRLSPAQRALYRDVMLETYSNLLSVGYEGTKPDVILRLEQEEAPWIGEAACPGCHCWEDIWQ
B16: DOMAIN_16696 (protein, listed as Tursiops truncatus)
chain: HQEVVTFEDVAVYFTQTEWAGLSPAQRALYRSVMLEIYGNLTSLGYPVPKPALVSLLERGDLPWGLETRDDPPAQGTKDIC
B17: DOMAIN_16677 (protein, listed as Pongo sp.)
chain: AQESVMFSDVSVDFSQEEWECLNDDQRDLYRDVMLENYSNLVSMGHSVSKPNVISYLEQGKEPWLVDRELTRGQWPVLESR
B18: DOMAIN_16399 (protein, listed as Rhinopithecus roxellana)
chain: FQRSVLFSDVSIDFSPEEWEYLDLEQKDLYRDVMLENYSNLVSLGCFISKPDVISLLEQGKEPWKVVRKGRRQYPDLETKY
B19: DOMAIN_16023 (protein, listed as Rhinopithecus bieti)
chain: AHALVTFRDVAIDFSQKEWECLDTTQRKLYRDVMLENYSNLVSLGYSGSKPDVITLLEQGKEPCVAVRDVTGTQYPGLLSR
B20: DOMAIN_16517 (protein, listed as Callithrix jacchus)
chain: EPGPVTFGDVAVYFSREEWGCLRPAQRALYRDVMRETYSHLGALGVEGSKPALISWVEEEAELWGPAAQDPEVAKRPTEAD
B21: DOMAIN_16266 (protein, listed as Otolemur garnettii)
chain: QELLTFKDVSVEFSMDEWACLDPAQQTLYQDVMLENYRHLVFLGLTLSKPDLITCLEQSKEPWKVKSHQTVVKHPAVSDPP
B22: DOMAIN_16084 (protein, listed as Enhydra lutris)
chain: SQVSVTFEDVAVLFTRDEWRKLGPSQRNVYQEVMLENYSNLVSLGLLFSKPRVISLLQEGEDPWKVEKESPGGPSLGWNSS
B23: DOMAIN_16516 (protein, listed as Macaca mulatta)
chain: RPESVTFEDVAVYFSENEWIGLGPAQRALYRDVMLENYGAVASLAAFPFPKPALISQLERGEAPWCSVPWGALDGEDPRSI
B24: DOMAIN_16184 (protein)
chain: QPQGTMTFKDVEVTFSQDEWGLLDASQRNLYRDVMLENYGNMASVVGPFTKPALISWLEAREPWGLNVQGVQLKGNPGAAP
modifications: Ovis aries
B25: DOMAIN_16323 (protein, listed as Trichechus manatus)
chain: PPESVTFEDVAVYFTQKEWASLMPAQKALYRDVMLENYEAVAFLAPATSKPALISQLEQGVEPSFSQAQGDLSMRDRGAGL
B26: DOMAIN_16659 (protein, listed as Leptonychotes weddellii)
chain: PQEPVTFEDVAVYFTQNQWASLDPTQRALYREVMLENYASVASLVVFPFPKPDLVSQLEREEAPWGPDPWEAEVLRGICPG
B27: DOMAIN_16648 (protein, listed as Physeter macrocephalus)
chain: DEALMAFKDVAVAFTQKEWKLLSPAQRTLYRDVMLENYSHMVSLGIAFPKPKLITQLEQGEEPWREESESLLDLCPAEPRT
B28: DOMAIN_16340 (protein)
chain: PQKLVTFEDVAVYFTQTEWDGLSTAQRALYRDVMLENYGNVASLGFPLLKPAVISQLEGGGELEGPSSLASGAGTGPQGLW
modifications: Ovis aries
B29: DOMAIN_16378 (protein, listed as Callithrix jacchus)
chain: PQKSVTFEDVAVYFTQAEWDGLSPAQRTLYRDVMLENYGNVASLGFPLLKPAVISQLEGGGELGGPSPLAAGTGLHVLRTV
B30: DOMAIN_16597 (protein)
chain: AQESVMFSDVSIDFSQEEWECLNDDQRDLYRDVMLENYSNLVSMAGHSISKPNVISYLEQGKEPWLVDREITSGQWPVLES
modifications: Cebus imitator
B31: DOMAIN_26070 (protein, listed as Geotrypetes seraphini)
chain: DRVKFTFSDVAVYFSEEEWQLLEEQQKELYQNVMKENYTTLMSLGYTTVKPDVISKIEQGKQPLVSSPSGSKGRRAIGRPS
B32: DOMAIN_25405 (protein, listed as Desmodus rotundus)
chain: SVTFRDVIVDFTQEEWQQLKPAQKDLYRDVMMEVYWNLVSLDVETRPDAKESDPQEDDWEDRPSVVVIAEGPTRNGARSYT
B33: DOMAIN_25379 (protein, listed as Sapajus apella)
chain: ALRSVMFSDISIDFSPEEWDCLDLEQKDLYRDVMLENYSNLVSLGCFISKPDVISLLEQGKEPWKVVRKRRGQCPDLQTKY
B34: DOMAIN_26732 (protein)
chain: CSKEPLCLQEPVSFADVAVYFSREEWALLDPAQRALYWDVMLETYECIASLGGEDPWIPDVHGLKDMAGDTCPGDGIADLK
modifications: Meleagris gallopavo
B35: DOMAIN_26322 (protein, listed as Geotrypetes seraphini)
chain: MQVKFEDVAVSFSQEEWEYLDEGQKELYREVMKENYETLLSLGLKCLQKIHESDRPFTYPACGKSFNHQSNLRKHKRNHTG

The test system of one test is HBEGF locus. The class given is cell-based, human. Conditions: high-throughput screen of dXR repression of the HBEGF gene; abundance of each domain in the library before and after diphtheria toxin selection; HEK293T cells.
As for B1, the “Log2 (fold change)” value was found to be 2.0926.

For B2, the “Log2 (fold change)” value is 3.8734.

Consider B3, for which the “Log2 (fold change)” value worked out at 3.2435.

Regarding B4, the “Log2 (fold change)” value is given as 2.6949.

With B5, the “Log2 (fold change)” value was 2.1603.

On to B6, for which the “Log2 (fold change)” value was found to be 3.1184.

With B7, the “Log2 (fold change)” value was 2.8285.

With B8, the “Log2 (fold change)” value is 3.7569.

Take B9: the “Log2 (fold change)” value was 3.4502.

For B10, the “Log2 (fold change)” value was found to be 2.5145.

In the case of B11, the “Log2 (fold change)” value amounted to 2.7655.

In the case of B12, the “Log2 (fold change)” value is 2.5699.

Turning to B13, the “Log2 (fold change)” value was determined as 4.2664.

Consider B14, for which the “Log2 (fold change)” value turned out to be 3.0938.

In the case of B15, the “Log2 (fold change)” value is listed as 3.3871.

B16: the “Log2 (fold change)” value came to 3.0806.

With B17, the “Log2 (fold change)” value came out at 3.1577.

Take B18: the “Log2 (fold change)” value worked out at 4.0639.

For the molecule B19, the “Log2 (fold change)” value was 2.2831.

As to B20, the “Log2 (fold change)” value stood at 3.3189.

Turning to B21, the “Log2 (fold change)” value is on record as 3.075.

As to B22, the “Log2 (fold change)” value worked out at 3.0131.

As for B23, the “Log2 (fold change)” value is reported as 3.8473.

B24: the “Log2 (fold change)” value is reported as 3.7743.

B25: the “Log2 (fold change)” value was found to be 4.0053.

In the case of B26, the “Log2 (fold change)” value was determined as 3.8913.

Regarding B27, the “Log2 (fold change)” value came to 3.629.

With B28, the “Log2 (fold change)” value was determined as 2.778.

For B29, the “Log2 (fold change)” value is reported as 2.9868.

Take B30: the “Log2 (fold change)” value was found to be 2.9869.

Staying with this test, now noted: high-throughput screen of dXR repression of the HBEGF gene; change in abundance of each domain in the library before and after diphtheria toxin selection.
On to B31, for which the “Log2 (fold change)” value was 3.7958.

In the case of B32, the “Log2 (fold change)” value amounted to 3.8846.

Consider B33, for which the “Log2 (fold change)” value was 3.5892.

For the molecule B34, the “Log2 (fold change)” value amounted to 2.7548.

As to B35, the “Log2 (fold change)” value was determined as 2.9265.
